Data on 1 molecule can be found in patent publication CN101205255A (SHANGHAI ZHONGXIN GUOJIAN PHAR, dated 2008).

The target in the assay is T1, human CD20 antigen on Raji cells (human, UniProt P11836 1-297).
T1 construct: whole, on cells; also called CD20抗原; Raji细胞
T1 sequence (looked up): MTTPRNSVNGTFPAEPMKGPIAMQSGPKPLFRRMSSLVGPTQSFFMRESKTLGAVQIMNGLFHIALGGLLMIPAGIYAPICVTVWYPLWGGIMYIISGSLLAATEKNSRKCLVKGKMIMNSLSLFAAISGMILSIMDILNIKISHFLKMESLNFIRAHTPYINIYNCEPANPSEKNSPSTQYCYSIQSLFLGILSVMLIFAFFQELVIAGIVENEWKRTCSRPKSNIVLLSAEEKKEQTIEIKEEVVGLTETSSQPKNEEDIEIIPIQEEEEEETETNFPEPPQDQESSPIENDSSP
The experiment in a line: dissociation from Raji cells, FITC-labelled antibody 10 μg/ml, 37°C, flow cytometry over time. Background: In flow cytometry, cells or beads pass a laser one at a time.

B1: anti-CD20 tetravalent antibody C2B8(ScFvHL)4-Fc (Fc fusion)
chain: QVQLQQPGAELVKPGASVKMSCKASGYTFTSYNMHWVKQTPGRGLEWIGAIYPGNGDTSYNQKFKGKATLTADKSSSTAYMQLSSLTSEDSAVYYCARSTYYGGDWYFNVWGAGTTVTVSAGGGGSGGGGSGGGGSQIVLSQSPAILSASPGEKVTMTCRASSSVSYIHWFQQKPGSSPKPWIYATSNLASGVPVRFSGSGSGTSYSLTISRVEAEDAATYYCQQWTSNPPTFGGGTKLEIKRASTGSQVQLQQPGAELVKPGASVKMSCKASGYTFTSYNMHWVKQTPGRGLEWIGAIYPGNGDTSYNQKFKGKATLTADKSSSTAYMQLSSLTSEDSAVYYCARSTYYGGDWYFNVWGAGTTVTVSAGGGGSGGGGSGGGGSQIVLSQSPAILSASPGEKVTMTCRASSSVSYIHWFQQKPGSSPKPWIYATSNLASGVPVRFSGSGSGTSYSLTISRVEAEDAATYYCQQWTSNPPTFGGGTKLEIKREFAAA[human IgG1 Fc with C220P (EU numbers) cut from this listing]
notes: Expressed in CHO cells, Protein A purified; FITC-labelled in some assays; also called C2B8(ScFvHL) 2 Fc (the single chain); C2B8的四价抗体
With B1, the binding result is listed as “binds”.
